# Screen size: about 310,000 compounds; about 14,000 (4.5%) showed an effect of 50% or more. Effects have a minus sign here. The list shows a part of the results.
# Molecular target: human ether-à-go-go-related gene (hERG) potassium channel (human, UniProt Q12809)
# Experiment: primary screen, population patch clamp on CHO cells stably expressing hERG
# 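Note: peak tail current of the secondary pulse compared with the same well before compound.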
# Sequence of human ether-à-go-go-related gene (hERG) potassium channel (Q12809 whole entry, looked up): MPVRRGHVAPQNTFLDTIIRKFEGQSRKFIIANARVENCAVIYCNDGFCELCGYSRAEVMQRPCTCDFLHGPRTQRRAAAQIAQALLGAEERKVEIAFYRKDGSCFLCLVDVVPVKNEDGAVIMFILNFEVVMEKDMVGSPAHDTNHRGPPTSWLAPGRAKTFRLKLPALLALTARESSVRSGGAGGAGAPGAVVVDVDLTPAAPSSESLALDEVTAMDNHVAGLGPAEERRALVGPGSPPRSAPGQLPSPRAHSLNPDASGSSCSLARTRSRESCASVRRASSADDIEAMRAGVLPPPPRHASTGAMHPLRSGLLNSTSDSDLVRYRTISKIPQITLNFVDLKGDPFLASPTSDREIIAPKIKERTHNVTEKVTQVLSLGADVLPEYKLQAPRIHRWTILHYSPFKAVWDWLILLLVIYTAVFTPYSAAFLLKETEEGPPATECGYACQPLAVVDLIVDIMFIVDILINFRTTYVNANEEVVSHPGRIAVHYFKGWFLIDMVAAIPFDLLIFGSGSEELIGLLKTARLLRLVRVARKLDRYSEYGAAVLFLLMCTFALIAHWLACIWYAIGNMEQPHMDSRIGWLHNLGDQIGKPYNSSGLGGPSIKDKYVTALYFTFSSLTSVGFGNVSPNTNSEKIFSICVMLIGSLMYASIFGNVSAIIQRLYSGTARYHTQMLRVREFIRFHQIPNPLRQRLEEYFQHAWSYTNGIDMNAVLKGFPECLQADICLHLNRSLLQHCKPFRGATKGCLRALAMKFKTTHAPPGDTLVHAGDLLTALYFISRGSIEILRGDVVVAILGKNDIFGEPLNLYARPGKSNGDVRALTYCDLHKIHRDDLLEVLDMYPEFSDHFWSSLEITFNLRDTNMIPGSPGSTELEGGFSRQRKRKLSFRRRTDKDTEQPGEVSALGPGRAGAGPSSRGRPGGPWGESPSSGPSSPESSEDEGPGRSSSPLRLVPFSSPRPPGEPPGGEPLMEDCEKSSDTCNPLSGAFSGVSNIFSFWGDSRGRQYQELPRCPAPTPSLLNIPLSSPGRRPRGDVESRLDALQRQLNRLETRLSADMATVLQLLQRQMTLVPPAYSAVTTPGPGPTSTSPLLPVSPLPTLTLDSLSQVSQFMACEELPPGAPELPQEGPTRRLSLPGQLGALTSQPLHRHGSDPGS
row,SMILES,"hERG current change (%, negative = inhibition) at 10uM [%]"
1,CCC1(C)Cc2c(sc3nc(NN)n(C)c(=O)c23)CO1 (stereo not drawn),13.4
2,O=C(CSc1ccc(-c2ccc(Br)cc2)nn1)N1CCOCC1,-18.7
3,COc1ccc(/C=C2/S/C(=N/S(=O)(=O)Cc3ccccc3)NC2=O)cc1OC,-11
4,CC(C)CN1CCN(Cc2ccc3ncccc3c2)CC1CCO (stereo not drawn),-13.2
5,CCN1C(=O)C(=Cc2ccc(C)s2)C(=O)N(CC)C1=S,5.09
6,Cc1ccc(-c2nc(C3CCCN(S(=O)(=O)c4ccc(C(F)(F)F)cc4)C3)no2)cc1 (stereo not drawn),15
7,CCCc1ccc2oc(C(=O)N3CCN(CCC(N)=O)CC3)c(C)c2c1,-20.7
8,COc1cc(C(=O)NNC(=S)NCc2ccco2)cc(OC)c1OC,15.9
9,CN1C2C=C(N(CCc3c[nH]c4ccccc34)C(=O)c3ccc(Cl)cc3)CC1CC2.Cl (stereo not drawn),-67
10,CCOC(=O)c1c(C)[nH]c(C)c1C(=O)CSc1nc2ccccc2n1CCOC,-2.35
11,Cc1cc(C)cc(N(C(C)C(=O)NC2CCCC2)S(C)(=O)=O)c1 (stereo not drawn),9.47
12,COC(=O)C1CSC(C(=O)OC)N1C(=O)CN1CC(C)OC(C)C1 (stereo not drawn),-3.54
13,CC#CC(=O)NCC1(N(C)Cc2ccccc2)Cc2ccccc2C1,-10.1
14,COc1ccccc1CC(=O)NC1CC(C)(C)NC(C)(C)C1.Cl,-10.2
15,Cn1cc(CNC(=O)c2ccc3nc(Cc4ccccc4F)oc3c2)cn1,10
16,CCOc1ccccc1C(=O)N1c2ccccc2Sc2ccccc21,0.756
17,O=C(c1cc(-c2ccc(Cl)cc2)on1)N1CCN(c2ccc(F)cc2)CC1,21.5
18,Cc1ccc2nc(SCC(=O)N3c4ccccc4CC3C)c(C)cc2c1 (stereo not drawn),7.54
19,CCCS(=O)(=O)c1nc(S(=O)(=O)c2ccc(C)cc2)c(NCCN2CCOCC2)s1,-18.3

row,SMILES,"hERG current change (%, negative = inhibition) at 10uM [%]"
1,NS(=O)(=O)c1ccc(CCNC(=O)CSc2nnc3ccccn23)cc1,37.8
2,Cc1cc(C)cc(Nc2ccc(C(=O)O)cc2N)c1,14.6
3,COc1ccc(NC(=O)CSc2nnc(-c3ccc(C)cc3)n2N)cc1,4.62
4,CN(C)C/C(Cl)=C(\Cl)c1ccccc1,11.1
5,CCCCn1c2ccc(F)cc2c2nnc(SCCN3CCOCC3)nc21,-55.4
6,CCc1nc2cccnc2n1-c1ccc(C(=O)O)cc1,5.08
7,Cc1cc(OCC(=O)N2CCN(c3cccc(Cl)c3)CC2)c2c(C)c(C)c(=O)oc2c1,8.83
8,CCOc1ccc(-c2nnc(SCC(=O)N3CCNC3=O)o2)cc1,18.7
9,CC(NS(=O)(=O)c1ccc(CCC(=O)NCC2CCCO2)cc1)c1ccccc1 (stereo not drawn),15.5
10,COc1cc(C(=O)Nc2ccccc2N2CCOCC2)ccc1OCc1c(C)noc1C,-28.8
11,O=C(CCNC(=O)C1CCN(S(=O)(=O)c2ccc(F)cc2)CC1)NCc1ccccc1,2.4
12,O=C(O)c1ccc(C[n+]2c(-c3ccccc3)csc2Nc2ccccc2)cc1.[Br-],5.57
13,COc1cccc(CN2CC(C(=O)N3CCCC3)CCC2=O)c1 (stereo not drawn),19.4
14,CC(C)Sc1nc(N)nc(-c2cccs2)c1C#N,1.2
15,O=C(NCc1ccccc1)c1ccc(N2CCC3(CC2)CC(c2ccc(Cl)cc2)=NO3)c([N+](=O)[O-])c1,11.6
16,O=C1NC2(CCCc3ccccc32)C(=O)N1Cc1nnc(-c2ccccc2Br)o1 (stereo not drawn),-4.24
17,Cc1ccccc1NC(=O)C1C2CC/C=C\CCC21 (stereo not drawn),34
18,COc1ccc(-c2nn(-c3ccccc3)cc2/C=C(\CC(=O)O)c2nc3ccccc3s2)cc1OC,23.6
19,Cc1occc1-c1nnc(SCC(=O)Nc2ccccn2)o1,7.09

row,SMILES,"hERG current change (%, negative = inhibition) at 10uM [%]"
1,N#Cc1c(-n2cccc2/C=N/O)sc2c1CCCC2,-31.2
2,CC(C)c1ccc(NC(=O)C2CCCCN2S(=O)(=O)c2ccccc2)cc1 (stereo not drawn),-18
3,O=S(=O)(NCc1ccccn1)c1cccc2nsnc12,7.17
4,CCOC(=O)c1c(N)sc(C(=O)N2CCCC(C(N)=O)C2)c1C (stereo not drawn),12.2
5,O=C(CCN1C(=O)c2ccccc2C1=O)NCCN1CCOCC1,20.1
6,CCc1ccc(CCOc2ccc(CC3SC(=O)NC3=O)cc2)nc1.Cl (stereo not drawn),4.26
7,CC(C)Oc1ccc(CCc2n[nH]c(=S)n2-c2ccccc2)cc1,10.8
8,COc1ccc(NC(=O)c2cc(-c3ccc(OC)c(OC)c3)on2)cc1OC,5.03
9,COC(=O)NCC(c1ccc2c(c1)OCO2)N1CCN(c2ccccc2)CC1 (stereo not drawn),-14.9
10,O=C1OC(N2C(=O)CC[C@H]2C(=O)Nc2cccc(F)c2)c2ccccc21 (stereo partly drawn),9.13
11,CSc1nc(Oc2ccc(=O)[nH]n2)nc(N(C)C)n1,12.9
12,CCCc1ccc(C(=O)COC(=O)CN2C(=O)NC3(CCCCC3C)C2=O)cc1 (stereo not drawn),3.91
13,O=C(O)CC/C(=C\c1cc2c(cc1Br)OCO2)c1nc2ccccc2s1,16.5
14,CC1CCN(c2nc3ccc(C(=O)O)cc3s2)CC1,22.8
15,CCOC(=O)C1CCCN(CC(=O)Nc2c(F)c(F)c(F)c(F)c2F)C1 (stereo not drawn),-6.2
16,COCCCNCCOc1ccc(C)cc1[N+](=O)[O-].O=C(O)C(=O)O,-18.7
17,O=C(CNc1cccc(S(=O)(=O)N2CCCCC2)c1)Nc1cccc(F)c1,-9.9
18,CCc1ccc(NC(=S)N(CCN2CCOCC2)Cc2ccccc2F)cc1,-24.5
19,COc1cc(/C=N/NC(=O)c2ccc(Cl)c(S(N)(=O)=O)c2)ccc1OCC(N)=O,9.92
